Laboratory results reported in publication PMC4336329 (PLoS ONE, 2015).
The campaign covered roughly 310,000 compounds. About 14,000 (4.5%) showed an effect of 50% or more. Effects have a minus sign here. The list shows a part of the results.

Each molecule was assayed against human ether-à-go-go-related gene (hERG) potassium channel (human, UniProt Q12809) (assay: primary screen, population patch clamp on CHO cells stably expressing hERG).
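Further: peak tail current of the secondary pulse compared with the same well before compound.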

human ether-à-go-go-related gene (hERG) potassium channel, sequence (Q12809 whole entry, looked up): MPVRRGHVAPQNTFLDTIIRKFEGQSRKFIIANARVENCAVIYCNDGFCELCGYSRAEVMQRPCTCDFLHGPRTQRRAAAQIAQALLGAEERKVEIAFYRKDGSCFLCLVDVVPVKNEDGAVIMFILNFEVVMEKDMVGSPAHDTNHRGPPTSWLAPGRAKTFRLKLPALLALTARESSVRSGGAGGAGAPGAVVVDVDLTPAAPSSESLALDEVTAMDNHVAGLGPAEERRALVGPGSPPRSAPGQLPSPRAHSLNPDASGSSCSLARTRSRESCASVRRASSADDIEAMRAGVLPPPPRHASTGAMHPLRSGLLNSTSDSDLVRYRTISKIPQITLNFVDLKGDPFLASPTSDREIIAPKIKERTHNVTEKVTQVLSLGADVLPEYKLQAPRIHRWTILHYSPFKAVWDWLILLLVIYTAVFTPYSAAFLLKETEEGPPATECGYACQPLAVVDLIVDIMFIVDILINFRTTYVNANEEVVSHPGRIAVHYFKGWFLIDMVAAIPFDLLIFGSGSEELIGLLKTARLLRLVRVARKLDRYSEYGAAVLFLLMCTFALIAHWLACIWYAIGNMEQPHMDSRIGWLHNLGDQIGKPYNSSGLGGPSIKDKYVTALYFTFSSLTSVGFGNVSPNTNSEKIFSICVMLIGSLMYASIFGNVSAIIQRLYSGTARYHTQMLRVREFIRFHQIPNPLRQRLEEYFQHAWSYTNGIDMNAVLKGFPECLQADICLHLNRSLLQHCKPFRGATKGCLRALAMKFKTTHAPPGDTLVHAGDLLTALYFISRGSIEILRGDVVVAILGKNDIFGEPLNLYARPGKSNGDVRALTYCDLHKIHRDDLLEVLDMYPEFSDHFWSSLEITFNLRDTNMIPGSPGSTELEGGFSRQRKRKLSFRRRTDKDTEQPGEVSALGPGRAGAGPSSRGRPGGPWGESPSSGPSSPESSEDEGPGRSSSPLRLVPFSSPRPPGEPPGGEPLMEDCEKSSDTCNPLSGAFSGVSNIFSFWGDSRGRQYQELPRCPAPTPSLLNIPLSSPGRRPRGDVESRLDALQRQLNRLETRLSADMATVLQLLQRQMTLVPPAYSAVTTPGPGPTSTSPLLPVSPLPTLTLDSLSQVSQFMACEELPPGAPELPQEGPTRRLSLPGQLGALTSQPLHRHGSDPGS

Row | SMILES | hERG current change (%, negative = inhibition) at 10uM [%]
1 | O=C(Nc1cccnc1)C1COc2ccccc2O1 (stereo not shown) | -1.56
2 | CC(=O)Nc1ccc(OC(=O)c2ccc(Cl)cc2)cc1 | 12
3 | Cn1c(=O)c2c(nc(CN3CCN(c4ccccc4)CC3)n2CCc2ccccc2)n(C)c1=O | -33.7
4 | CC(C)C[C@H](NC(=O)c1nc[nH]c1C(=O)N1CC[NH2+]CC1)C(=O)OCc1ccccc1.[Cl-] | 20.5
5 | COC(=O)c1ccccc1NC(=O)CSc1nnnn1C | -9.06
6 | COc1ccc(OC)c(C(=O)COC(=O)c2cccnc2Cl)c1 | -10.1
7 | O=C(CSc1nc2ccccc2c(=O)n1CC1CCCO1)Nc1ccccc1Cl (stereo not shown) | -22.1
8 | O=C(Nc1ccccn1)C1CCN(C(=O)Nc2ccccc2)CC1 | 4.81
9 | NC(=O)c1cccnc1Sc1ccc(Cl)cc1 | -9.35
10 | COc1cc(CN2CCNC(=O)C2CC(=O)O)cc(OC)c1 (stereo not shown) | 2.55
11 | Cc1cccc(OCC(=O)Nc2ccc(N3CCN(S(C)(=O)=O)CC3)cc2)c1C | 0.423
12 | COc1nc(Nc2ccc(C(C)=O)cc2)nc(OC)n1 | -8.58
13 | CCC(C)c1ccccc1NC(=S)Nc1cccnc1 (stereo not shown) | 13.5
14 | CCOc1ccc(S(=O)(=O)Nc2ccc(C(=O)NCC(C)(C)N3CCOCC3)cc2)cc1 | -6.45
15 | CC(C)N(C(=O)CSc1nn2c(=O)c(C(C)(C)C)nnc2s1)c1ccccc1 | -2.77
16 | Cc1cc(C(=O)O)sc1C | 16.1
17 | O=C(O)C1C2C=CC3(CN(Cc4ccco4)C(=O)C13)O2 (stereo not shown) | 10.8
18 | COc1ccc(C(=O)OCC(=O)Nc2ccc3c(c2)OCCO3)c(OC)c1 | 12.1
19 | Nc1nc(-c2cccc(NS(=O)(=O)c3ccccc3)c2)cs1 | -6.06
20 | CCC(C(=O)Nc1ccc(S(=O)(=O)N(C)C2CCN(C)CC2)cc1)c1ccccc1 (stereo not shown) | -0.565
21 | COc1cc(C)ccc1OCCOc1c(Cl)cc(Cl)cc1Cl | 5.91
22 | Cc1cc(C)nc(SCc2ccc(C(=O)O)o2)n1 | 4.23
23 | O=C1CC2(CCN(C(=O)COc3ccc(Cl)cc3)CC2)Oc2ccccc21 | -85.8
24 | O=[N+]([O-])c1ccc(-c2csc(N3CCCCCC3)n2)cc1 | 16.8
25 | COc1ccc(C(C(N)=O)c2ncc(C(F)(F)F)cc2Cl)cc1OC (stereo not shown) | 11
